About 540 (0.36%) of roughly 150,000 compounds showed an effect of 50% or more. This is one part of the list.
Each compound was assayed on Plasmodium falciparum (assay: Primary screen in NF54 nanoGlo assay, in single point, at 2uM, 72h; a lower Z score goes with more inhibition). Conditions: timepoint 72 hour.
Type: functional, Erythrocyte

Compound | % Inhibition [%] | Z score
Oc1ccc(-c2nccn2C[C@H](O)COC2CCCCC2)cc1 | 5 | -0.77
CN(C(=O)CCC1CCCO1)C1CCS(=O)(=O)C1 (stereo not drawn) | -4 | 0.74
CCO/C(=N/C(=O)c1ccc(C(F)(F)F)cc1)NCCN1CCCCC1 | -5 | 0.84
CCc1ccc(CN2CC[C@H](S(=O)(=O)N3CCCC3)C2)o1 | -6 | 0.81
Cc1ccc(-c2ccc(CN3C[C@@H](CN4CCCC4)[C@@H](CO)C3)o2)cc1 | -15 | 2.63
CC[C@H](NCc1ccc(OC(F)F)c(F)c1)c1ncc(C)s1 | 1 | -0.06
Cc1nc(Cn2cc(-c3cnn(-c4ccc(C)c(C)c4)c3)nn2)no1 | -28 | 3.63
COc1ccc(-c2cc3nc(C)cc(N4CCN(C/C=C/c5ccccc5)CC4)n3n2)cc1OC | 51 | -9.31
CCC[C@H](NC(=O)c1cccc(-n2cccn2)n1)c1nnn[nH]1 | 17 | -1.97
O=S(=O)(C1CC1)N1CC[C@H](Oc2cc(N3CCOCC3)ncn2)C1 | 0 | 0.03
Cc1cc(Cl)ccc1OCC(=O)NO | 0 | -0.04
Cc1ncncc1C(=O)N1CC[C@H](O)CC(C)(C)C1 | -7 | 0.64
CCN(C(=O)c1ccnc(C)n1)C1CCCCC1C (stereo not drawn) | -4 | 0.4
COC(=O)c1cc(CNc2nc3ccccc3o2)c[nH]1 | -5 | 0.71
COC1(CNC(=O)c2noc(C)n2)CCCCCC1 | -1 | 0.16
O=C1OC2(CCN(C(=O)c3c(F)cccc3Cl)CC2)c2ccccc21 | -6 | 1.16
CCN(C(=O)c1ncc(Br)s1)C1CCCC1 | 7 | -0.58
Cc1nc(NCc2ccc(N3CCC[C@H](C)C3)cc2)c2c(C)noc2n1 | -5 | 0.7
C[C@H](NC(=O)NCc1cccnc1N1CCOCC1)c1cc2ccccc2o1 | -11 | 1.05
COCCN(C(=O)c1ccc(C)c(OC)c1)[C@@H](C)C(N)=O | -5 | 0.89
COc1ccc(-c2nc(-c3ccc(OC)cc3)c(C)c(C#Cc3ccccc3)c2C)cc1 | -6 | 0.78
CC(C)c1nnc(C2CCN(C(=O)C3c4ccccc4Oc4ccccc43)CC2)o1 | 7 | -0.88
CCCCn1ncc(C)c1NC(=O)CC1CC(C)(C)NC(C)(C)C1 | -3 | 0.37
CC(O)C(=O)N1CCC(C2N(C(=O)OC(C)(C)C)CC2(C)C)CC1 (stereo not drawn) | -7 | 0.84
Cc1cc2c3c([nH]c2cc1S(=O)(=O)N(C)C1CCCCC1)CC(C)(C)CC3=O | -12 | 2.36
O=C(CCCc1c[nH]c2ccccc12)N1CCC[C@H](c2nnc3ccccn23)C1 | -12 | 1.96
CN1c2cccnc2CN(Cc2ccccn2)CC[C@H]1CO | 34 | -3.81

Compound | % Inhibition [%] | Z score
Cc1nnc(NC(=O)Cc2sc(C)nc2C)s1 | -3 | 0.43
CC1CC1C(=O)NCC(C)(NC(=O)C1CC1C)C(C)C (stereo not drawn) | 33 | -3.76
CCCCN(C)C(=O)c1cn2nc(OCC)ccc2n1 | -27 | 4
Cc1ccc(Br)cc1C(=O)Nc1nc2c(s1)C[C@@H](N)CC2 | 3 | -0.55
Cc1ccc(C)c(NC(=O)c2nc3c(=O)n(Cc4ccccc4)c4cc(C)ccc4n3n2)c1 | -6 | 0.63
COc1cccc(CNc2nc(NCc3cccc(OC)c3)n(S(=O)(=O)c3ccccc3)n2)c1 | -11 | 1.62
O=S(=O)(c1ccccc1)n1c(CNC[C@H](O)C2CC2)cc2cccnc21 | 4 | -0.59
O=C(c1ccc2c(c1)CCC=C2)N1CC[C@@](F)(C(=O)O)C1 | -4 | 0.55
Cc1occc1S(=O)(=O)Cc1ncnn1CC(C)C | -6 | 0.92
CN=C(NCc1noc(C)n1)N[C@@H](C)c1ccc(OCC(C)C)cc1 | 3 | -0.38
Cc1ccc2c(c1C)OCC2NC(=O)N1CC2CCCC(C1)C2O (stereo not drawn) | 5 | -0.57
CCCc1c(C(=O)N2CCN(c3nc4nccc(-c5cc(Cl)ccc5Cl)n4n3)CC2)cnn1-c1ccccc1 | 1 | -0.07
CCc1oc(C(=O)N2CCCC2)cc1C | -14 | 1.45
O=C(Nc1cccc2[nH]ccc12)c1cc(O)nc2ccccc12 | 34 | -3.84
Cc1noc(OCC(=O)c2ccc(F)c(Cl)c2)n1 | -10 | 1.95
CC(C)NC(=O)N(C)c1ccc(OC(=O)c2cc(S(=O)(=O)NC(C)C)ccc2Cl)cc1 | 1 | -0.09
COc1ccc2c(c1)N(C(C)=O)C(C)(C)C[C@@H]2C | -6 | 0.75
CN1CCOC(CNCC(O)COc2cccc(C(F)(F)F)c2)C1 (stereo not drawn) | 14 | -2.85
CC(C)Cc1nc(NC(=O)c2n[nH]c3ccccc23)n[nH]1 | -14 | 1.68
Cc1nn(-c2ccc(F)cc2)c2[nH]nc(NC(=O)Cn3ccnc3)c12 | -6 | 0.95
C=CCC1(CC=C)CCCN1C(=O)C[C@H]1C(=O)NCCN1Cc1ccc(OC)cc1F | -9 | 1.28
CCc1ncc(C(=O)N2CC[C@H](CO)C[C@@H]2C)s1 | -3 | 0.34
OCCC[C@@H]1CN(Cc2nc3ccccc3[nH]2)CC[C@@H]1N1CCOCC1 | -10 | 1.8
O=C1C[C@H](c2ccc(F)c(F)c2F)c2c(n(C3CCCC3)[nH]c2=O)N1 | 31 | -3.53
c1cnc2c(-c3nc([C@H]4CCOC4)no3)cccc2c1 | -15 | 1.88
COc1cc(C(=O)NC2CC(C)(C)NC(C)(C)C2)ccc1OCc1ccccc1Cl | 31 | -0.44
CN(C)c1ccc(C(=O)N2CCCCCCC2)cn1 | 6 | -1.1

— ChEMBL document CHEMBL4888484, “Replenishing the malaria drug discovery pipeline: Screening and hit evaluation of the MMV Hit Generation Library 1 (HGL1) against asexual blood stage Plasmodium falciparum ,using a nano luciferase reporter read-out” (2022)
